The labels stand for the following.
B1: glmS ribozyme (parent)
chain: AUAAAAGCGCCAGAACUACAGAAAUGUAGUUGACGAGGAGGAGGUUUAUCGAAUUUUCGGCGGAUGCCUCCAAA

What all share (settings): with glucosamine-6-phosphate
Variants of B1 are the subject of data set [1]. Nature of the data set: self-cleavage kobs at 640 uM GlcN6P; higher = faster cleavage; RNA array. In outline:
(§1)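 Glucosamine-6-phosphate, from 40 μM to 10 mM in HEPES/KCl/Mg(OAc)2 buffer, was flowed over sequenced MiSeq chips carrying barcoded ribozyme variants transcribed in situ by E. coli RNA polymerase. A hybridised Cy3 probe tracked the variants at 37 °C as tiles were imaged over ~14 h. kobs, kcat and KM were obtained by fitting normalised per-tile medians to exponential decays and then applying weighted Michaelis–Menten fits across concentrations.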

In data set [2] the parent is B1. Nature of the data set: self-cleavage kobs at 2500 uM GlcN6P; higher = faster cleavage; RNA array. In outline: as §1
The variants in data set [3] derive from B1. Nature of the data set: self-cleavage kobs at 160 uM GlcN6P; higher = faster cleavage; RNA array. The gist of the method: as §1
The variants in data set [4] derive from B1. Nature of the data set: self-cleavage kobs at 10000 uM GlcN6P; higher = faster cleavage; RNA array. In outline: as §1

Variants at the background level are over-represented here.

For AUAAAAGCGCCAGAACUACAGAAAUGUAGUUGAAGAGGAGGAGGUUGAUCGAAAUUUCGGCGGAUGCCUCGAAA [C34A U47G U54A C71G], in the data set with glucosamine-6-phosphate [1], the “self-cleavage kobs at 640 uM GlcN6P” value is less than 1e-05 s⁻¹.

For AUAAAAGCGCCAGAACUACAGAAAUGUAGUUGAUGAGGAGGAGCUUUAUCGAAUUUUCGGCGUCUGCCUCCAAA [C34U G44C G63U A64C], the “self-cleavage kobs at 640 uM GlcN6P” value with glucosamine-6-phosphate [1] is less than 1e-05 s⁻¹. The same measure, in the same setting: next, AUAAAAGCGCCAGAACUACAGAAAUGUAGUUGACGCGGAGCAGGUUUAUCGAAUUUUCGGCGGCUGCCUCCAAA [A36C G41C A64C]: less than 1e-05 s⁻¹; AUAAAAGCGCCAGAACUACAGAAAUGUAGUUGACCAGGAGGAGGGUUAUCGAAUUUCCUGCGGAUGCCUCCAAA [G35C U45G U57C G59U]: less than 1e-05 s⁻¹. As to AUAAAAGCGCCAGAACUACAGAAAUGUAGUUGGCGAGCAGGAGGUUUAUCGAAUUUCCAGCGGAUGCCUCCAAA [A33G G38C U57C G59A], in the data set with glucosamine-6-phosphate [1], the “self-cleavage kobs at 640 uM GlcN6P” value was less than 1e-05 s⁻¹. In addition, the “self-cleavage kobs at 2500 uM GlcN6P” value in the data set with glucosamine-6-phosphate [2] is less than 1e-05 s⁻¹. Turning to AUAAAAGCGCCAGAACUACAGAAAUGUAGUUGAUGAGGAGGAGGUUUAUCGAAUUUUCCGAGGAUGCCUCCAAA [C34U G59C C61A], the “self-cleavage kobs at 640 uM GlcN6P” value in the data set with glucosamine-6-phosphate [1] was less than 1e-05 s⁻¹. The “self-cleavage kobs at 160 uM GlcN6P” value with glucosamine-6-phosphate [3] was less than 1e-05 s⁻¹. Also, in the data set with glucosamine-6-phosphate [2], the “self-cleavage kobs at 2500 uM GlcN6P” value is less than 1e-05 s⁻¹. AUAAAAGCGCCAGAACUACAGAAAUGUAGUUGACUGGGAGGAGGUUUAUCGAAUUUUCGGAGGAUGCCUCCAAA [G35U A36G C61A]: the “self-cleavage kobs at 640 uM GlcN6P” value with glucosamine-6-phosphate [1] is less than 1e-05 s⁻¹. For AUAAAAGCGCCAGAACUACAGAAAUGUAGUUGACAAGGAGGAGGUUUAUUGGAUUUUCGGCGGAUGCCUCCAAA [G35A C50U A52G], in the data set with glucosamine-6-phosphate [1], the “self-cleavage kobs at 640 uM GlcN6P” value was less than 1e-05 s⁻¹. Further, the “self-cleavage kobs at 2500 uM GlcN6P” value in the data set with glucosamine-6-phosphate [2] was less than 1e-05 s⁻¹. Turning to AUAAAAGCGCCAGAACUACAGAAAUGUAGUUGACCAGGAGGAGGUUUAUGGAAUUUUCAGCGGAUGCCUCCAAA [G35C C50G G59A], the “self-cleavage kobs at 640 uM GlcN6P” value in the data set with glucosamine-6-phosphate [1] was less than 1e-05 s⁻¹.

Consider AUAAAAGCGCCAGAACUACAGAAAUGUAGUUGAUGAGGAGGCGGUUUAUCGAAUUUUCAGCGGAUGCCUCCAAA [C34U A42C G59A], for which the “self-cleavage kobs at 640 uM GlcN6P” value with glucosamine-6-phosphate [1] was less than 1e-05 s⁻¹. Further, the “self-cleavage kobs at 2500 uM GlcN6P” value with glucosamine-6-phosphate [2] was less than 1e-05 s⁻¹. As for AUAAAAGCGCCAGAACUACAGAAAUGUAGUUGAGGAGGAGGAGGUUUAUCGAAUUUUCGGCGGCUGCCCCCAAA [C34G A64C U69C], the “self-cleavage kobs at 640 uM GlcN6P” value with glucosamine-6-phosphate [1] was less than 1e-05 s⁻¹.

Turning to AUAAAAGCGCCAGAACUACAGAAAUGUAGUUGACUAGUAGGAGGUUUAUCGAAUUUUCGGCGGUUGCCUCCAAA [G35U G38U A64U], the “self-cleavage kobs at 640 uM GlcN6P” value with glucosamine-6-phosphate [1] is less than 1e-05 s⁻¹. In the data set with glucosamine-6-phosphate [3], the “self-cleavage kobs at 160 uM GlcN6P” value was less than 1e-05 s⁻¹. The “self-cleavage kobs at 10000 uM GlcN6P” value with glucosamine-6-phosphate [4] is less than 1e-05 s⁻¹. On to AUAAAAGCGCCAGAACUACAGAAAUGUAGUUGAUGAGGAGGAGGUUUAUCGAGUUUUCGGCGGUUGCCUCCAAA [C34U A53G A64U], for which, in the data set with glucosamine-6-phosphate [1], the “self-cleavage kobs at 640 uM GlcN6P” value was less than 1e-05 s⁻¹. In addition, the “self-cleavage kobs at 2500 uM GlcN6P” value in the data set with glucosamine-6-phosphate [2] was less than 1e-05 s⁻¹. As to AUAAAAGCGCCAGAACUACAGAAAUGUAGUUGACCAGGAAGAGGUGUAUCGAAUUUUCGGCGGAUACCUCCAAA [G35C G40A U46G G66A], in the data set with glucosamine-6-phosphate [1], the “self-cleavage kobs at 640 uM GlcN6P” value is less than 1e-05 s⁻¹. In the data set with glucosamine-6-phosphate [2], the “self-cleavage kobs at 2500 uM GlcN6P” value was less than 1e-05 s⁻¹. For the variant AUAAAAGCGCCAGAACUACAGAAAUGUAGUUGGCGAUGAGGAGGUUUAUCGAAUUUUCGGCGGAUGCCUCCAAA [A33G G37U], in the data set with glucosamine-6-phosphate [1], the “self-cleavage kobs at 640 uM GlcN6P” value is less than 1e-05 s⁻¹. Besides, the “self-cleavage kobs at 160 uM GlcN6P” value with glucosamine-6-phosphate [3] was less than 1e-05 s⁻¹. Also, the “self-cleavage kobs at 10000 uM GlcN6P” value with glucosamine-6-phosphate [4] is less than 1e-05 s⁻¹. Regarding AUAAAAGCGCCAGAACUACAGAAAUGUAGUUGAAGAGGAGGAGGUUUUUCGAAUUUUCGGCGGAUGCCUCCAAA [C34A A48U], in the data set with glucosamine-6-phosphate [1], the “self-cleavage kobs at 640 uM GlcN6P” value is less than 1e-05 s⁻¹. For the same variant, the “self-cleavage kobs at 160 uM GlcN6P” value with glucosamine-6-phosphate [3] is less than 1e-05 s⁻¹. Also, the “self-cleavage kobs at 2500 uM GlcN6P” value with glucosamine-6-phosphate [2] was less than 1e-05 s⁻¹. For the same variant, the “self-cleavage kobs at 10000 uM GlcN6P” value with glucosamine-6-phosphate [4] was less than 1e-05 s⁻¹.

As to AUAAAAGCGCCAGAACUACAGAAAUGUAGUUGAAGAGGAGGAGGUUUAUCGAAUUUUCGGCGGAUCCCUCCAAA [C34A G66C], the “self-cleavage kobs at 640 uM GlcN6P” value in the data set with glucosamine-6-phosphate [1] is less than 1e-05 s⁻¹. Also, the “self-cleavage kobs at 160 uM GlcN6P” value with glucosamine-6-phosphate [3] is less than 1e-05 s⁻¹. The “self-cleavage kobs at 10000 uM GlcN6P” value in the data set with glucosamine-6-phosphate [4] is less than 1e-05 s⁻¹. On to AUAAAAGCGCCAGAACUACAGAAAUGUAGUUGAUGAGGAGGAGGUUUAACGAAUUUUCGGCGGAUGUCUCCAAA [C34U U49A C67U], for which the “self-cleavage kobs at 640 uM GlcN6P” value in the data set with glucosamine-6-phosphate [1] was less than 1e-05 s⁻¹. Besides, the “self-cleavage kobs at 2500 uM GlcN6P” value with glucosamine-6-phosphate [2] is less than 1e-05 s⁻¹. On to AUAAAAGCGCCAGAACUACAGAAAUGUAGUUGACGCCGAGGAGGUAUGUCGAAUUUUCGGCGGAUGCCUGCAAA [A36C G37C U46A A48G C70G], for which the “self-cleavage kobs at 640 uM GlcN6P” value with glucosamine-6-phosphate [1] is less than 1e-05 s⁻¹. For the variant AUAAAAGCGCCAGAACUACAGAAAUGUAGUUGAUGGGGAGGAAGUUUAUCGAAUUUUCGGCGGAUGCCUCCAAA [C34U A36G G43A], the “self-cleavage kobs at 640 uM GlcN6P” value with glucosamine-6-phosphate [1] is less than 1e-05 s⁻¹.

(Values after the supplement of paper PMC7125110.)
